Reference: PubChem BioAssay AID1671194 (National Center for Advancing Translational Sciences (NCATS), 2021)
About 240 (0.17%) of roughly 140,000 compounds were called active. Inconclusive means that the source gave no clear call. Such entries were picked first, then a sample of the others. The call rests on the fitted dose curve; in most records, active means well fitted inhibition curve with a large enough effect; inconclusive means small, poorly fitted or top-dose-only effect; inactive means no such curve, though single readings can be large or run the other way. Where the call is inconclusive, the potency comes from a doubtful curve fit.

Experiment: Primary qHTS assay for inhibitors of alpha-synuclein gene (SNCA) expression; further: nearly all actives have a fitted effect of over 45% in size;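 on activity change, negative = inhibition: plate controls were DMSO cells for no effect and cell-free wells for full effect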
Settings: HEK-293 SNCA-luciferase knock-in, luminescence, 24 h; activity change, negative = inhibition: at 57.2 µM (top of the series) unless noted
Potency means the concentration at half of the fitted maximal effect; tags describe the fitted curve by direction and shape.

| Compound | Potency | activity change, negative = inhibition |
| --- | --- | --- |
| Cn1cnnc1CC1CCN(C(=O)CCc2ccccc2)CC1 | inconclusive: 17.8 µM [inhibitor, single point] |  |
| Cn1c(C(=O)NC2CCN(Cc3ccccc3)CC2)cc2c1CCN(Cc1ccccc1)C2 |  | inactive: -28.6% |
| CN1CCC(NC(=O)c2cccc3c2CCN3C(=O)C2CC2)CC1 | inconclusive: 2.82 µM [inhibitor, partial curve, poor fit] |  |
| Cc1noc(-c2ccn3c(CNC(=O)c4cccc(F)c4)nnc3c2)n1 | inconclusive: 11.2 µM [inhibitor, partial curve] |  |
| CCN(CC)S(=O)(=O)c1ccc(C(=O)NCCSc2c(-c3ccccc3)[nH]c3ccccc23)cc1 | inconclusive: 4.47 µM [inhibitor, full curve] |  |
| O=C(c1ccc(C(F)(F)F)cc1)N1CCCC2(CNc3ccccc3[S+](=O)([O-])N2)C1 (configuration not stated) | inconclusive: 3.98 µM [inhibitor, single point] |  |
| C[C@@H]1C(=O)O[C@H]2[C@H]1CC[C@@]1(C)Cc3sc(Nc4cccnc4)nc3[C@@H](C)[C@H]21 | inconclusive: 3.16 µM [inhibitor, full curve, poor fit] |  |
| O=C(CSc1nc(-c2cccc(F)c2)[nH]c1-c1ccccc1)Nc1ccc2c(c1)OCO2 | inconclusive: 31.6 µM [inhibitor, partial curve, poor fit] |  |
| COCCNC(=O)[C@H]1C[C@H](Oc2ccccc2)CN1C(=O)CC(C)C |  | inactive: -13.8% |
| O=C(CC1CCCC1)N1CCC(Cc2nc(-c3ccc(F)cc3)no2)CC1 | inconclusive: 8.91 µM [inhibitor, partial curve, poor fit] |  |
| O=C(NCCc1nccs1)c1cn(CCN2CCNCC2)nn1 | inconclusive: 3.16 µM [inhibitor, partial curve, poor fit] |  |
| Cc1ccc(-n2ncc(C(=O)NCc3ccco3)c2C2CCN(C(=O)OC(C)(C)C)CC2)cc1C | inconclusive: 39.8 µM [inhibitor, single point] |  |
| Cc1ccc(NC(=O)[C@H]2CN(Cc3ccccc3)C[C@H]2C(=O)O)cc1 | inconclusive: 3.16 µM [inhibitor, single point] |  |
| COc1cccc(Cn2c(=O)cnc3cnc(N4CCN(C)CC4)nc32)c1 |  | inactive: -6.89% |
| CCNc1ncnc2sc3c(c12)CCN(C(=O)COC)C3 |  | inactive: 2.12% |
| O=C(NC1C=CS(=O)(=O)C1)c1ccc2nc(-c3ccc(F)cc3)cn2c1 (configuration not stated) |  | inactive: 73.5% |
| COc1ccccc1C(=O)Nc1ccc2nc(SCC(=O)N3CCCc4ccccc43)sc2c1 | inconclusive: 15.8 µM [inhibitor, single point] |  |
